# Some of the results follow.
# B1: DC-ASGPR S+GEE (Homo sapiens) (protein)
# chain: MTRTYENFQYLENKVKVQGFKNGPLPLQSLLQRLRSGPCHLLLSLGLGLLLLVIICVVGFQNSKFQRDLVTLRTDFSNFTSNTVAEIQALTSQGSSLEETIASLKAEVEGFKQERQAVHSEMLLRVQQLVQDLKKLTCQVATINNNGEEASTEGTCCPVNWVEHQDSCYWFSHSGMSWAEAEKYCQLKNAHLVVINSREEQNFVQKYLGSAYTWMGLSDPEGAWKWVDGTDYATGFQNWKPGQPDDWQGHGLGGGEDCAHFHPDGRWNDDVCQRPYHWVCEAGLGQTSQESH
# Assays:
# Experiment in all cases: glycan array binding signal (z-score within array); higher = stronger binding
# Settings in all cases: glycan notation: IUPAC condensed, linker removed
# [1] = target: Neu5Ac(a2-3)Gal(b1-3)GlcNAc(b1-6)GalNAc
# In short: (§1)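 From the Consortium for Functional Glycomics database, 3228 arrays were curated, keeping only those whose protein sequence was available. Binding is given as a within-array Z-score averaged across arrays sharing a protein sequence and across linkers. Negative Z-scores can be read as non-binding.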
# [2] = target: Neu5Ac(a2-3)Gal(b1-3)GlcNAc6S
# In short: as §1
# [3] = target: Neu5Ac(a2-3)Gal(b1-3)[Fuc(a1-4)]GlcNAc
# In short: as §1
# [4] = target: Neu5Ac(a2-3)Gal(b1-3)[Fuc(a1-4)]GlcNAc(b1-3)Gal(b1-3)[Fuc(a1-4)]GlcNAc
# In short: as §1
# [5] = target: Neu5Ac(a2-3)Gal(b1-3)[Fuc(a1-4)]GlcNAc(b1-3)Gal(b1-4)[Fuc(a1-3)]GlcNAc
# In short: as §1
# [6] = target: Neu5Ac(a2-3)Gal(b1-3)[GlcNAc(b1-6)]GalNAc
# In short: as §1
# [7] = target: Neu5Ac(a2-3)Gal(b1-3)[Neu5Ac(a2-6)]GalNAc
# In short: as §1
# [8] = target: Neu5Ac(a2-3)Gal(b1-3)[Neu5Ac(a2-6)]GlcNAc(b1-3)[Fuc(a1-3)[Gal(b1-4)]GlcNAc(b1-6)]Gal(b1-4)Glc
# In short: as §1
# [9] = target: Neu5Ac(a2-3)Gal(b1-3)]Neu5Ac(a2-3)Gal(b1-4)]GlcNAc
# In short: as §1
# Neu5Ac(a2-3)Gal(b1-4)Glc = target: Neu5Ac(a2-3)Gal(b1-4)Glc
# In short: as §1
# [10] = target: Neu5Ac(a2-3)Gal(b1-4)GlcNAc
# In short: as §1
# [11] = target: Neu5Ac(a2-3)Gal(b1-4)GlcNAc(b1-2)Man
# In short: as §1
# [12] = target: Neu5Ac(a2-3)Gal(b1-4)GlcNAc(b1-2)Man(a1-3)[GlcNAc(b1-4)][Neu5Ac(a2-3)Gal(b1-4)GlcNAc(b1-2)Man(a1-6)]Man(b1-4)GlcNAc(b1-4)GlcNAc
# In short: as §1
# [13] = target: Neu5Ac(a2-3)Gal(b1-4)GlcNAc(b1-2)Man(a1-3)[Neu5Ac(a2-3)Gal(b1-4)GlcNAc(b1-2)Man(a1-6)]Man(b1-4)GlcNAc(b1-4)GlcNAc
# In short: as §1
# [14] = target: Neu5Ac(a2-3)Gal(b1-4)GlcNAc(b1-2)Man(a1-3)[Neu5Ac(a2-3)Gal(b1-4)GlcNAc(b1-2)Man(a1-6)]Man(b1-4)GlcNAc(b1-4)[Fuc(a1-6)]GlcNAc
# In short: as §1
# [15] = target: Neu5Ac(a2-3)Gal(b1-4)GlcNAc(b1-2)Man(a1-3)[Neu5Ac(a2-6)Gal(b1-4)GlcNAc(b1-2)Man(a1-6)]Man(b1-4)GlcNAc(b1-4)GlcNAc
# In short: as §1
# [16] = target: Neu5Ac(a2-3)Gal(b1-4)GlcNAc(b1-2)[Neu5Ac(a2-3)Gal(b1-4)GlcNAc(b1-4)]Man(a1-3)[GlcNAc(b1-4)][Neu5Ac(a2-3)Gal(b1-4)GlcNAc(b1-2)[Neu5Ac(a2-3)Gal(b1-4)GlcNAc(b1-6)]Man(a1-6)]Man(b1-4)GlcNAc(b1-4)GlcNAc
# In short: as §1
# [17] = target: Neu5Ac(a2-3)Gal(b1-4)GlcNAc(b1-2)[Neu5Ac(a2-3)Gal(b1-4)GlcNAc(b1-4)]Man(a1-3)[GlcNAc(b1-4)][Neu5Ac(a2-3)Gal(b1-4)GlcNAc(b1-4)Man(a1-6)]Man(b1-4)GlcNAc(b1-4)GlcNAc
# In short: as §1
# [18] = target: Neu5Ac(a2-3)Gal(b1-4)GlcNAc(b1-2)[Neu5Ac(a2-3)Gal(b1-4)GlcNAc(b1-6)]Man(a1-6)[Neu5Ac(a2-3)Gal(b1-4)GlcNAc(b1-2)Man(a1-3)][GlcNAc(b1-4)]Man(b1-4)GlcNAc(b1-4)GlcNAc
# In short: as §1
# [19] = target: Neu5Ac(a2-3)Gal(b1-4)GlcNAc(b1-3)Gal
# In short: as §1
# [20] = target: Neu5Ac(a2-3)Gal(b1-4)GlcNAc(b1-3)Gal(b1-3)GlcNAc
# In short: as §1
# [21] = target: Neu5Ac(a2-3)Gal(b1-4)GlcNAc(b1-3)Gal(b1-4)GlcNAc
# In short: as §1
# [22] = target: Neu5Ac(a2-3)Gal(b1-4)GlcNAc(b1-3)Gal(b1-4)GlcNAc(b1-2)Man(a1-3)[Neu5Ac(a2-3)Gal(b1-4)GlcNAc(b1-3)Gal(b1-4)GlcNAc(b1-2)Man(a1-6)]Man(b1-4)GlcNAc(b1-4)GlcNAc
# In short: as §1
# [23] = target: Neu5Ac(a2-3)Gal(b1-4)GlcNAc(b1-3)Gal(b1-4)GlcNAc(b1-3)Gal(b1-4)GlcNAc
# In short: as §1
# [24] = target: Neu5Ac(a2-3)Gal(b1-4)GlcNAc(b1-3)Gal(b1-4)GlcNAc(b1-3)Gal(b1-4)GlcNAc(b1-2)Man(a1-3)[Neu5Ac(a2-3)Gal(b1-4)GlcNAc(b1-3)Gal(b1-4)GlcNAc(b1-3)Gal(b1-4)GlcNAc(b1-2)Man(a1-6)]GalNAc
# In short: as §1
# [25] = target: Neu5Ac(a2-3)Gal(b1-4)GlcNAc(b1-3)Gal(b1-4)GlcNAc(b1-3)GalNAc
# In short: as §1
# [26] = target: Neu5Ac(a2-3)Gal(b1-4)GlcNAc(b1-3)Gal(b1-4)GlcNAc(b1-3)[Neu5Ac(a2-3)Gal(b1-4)GlcNAc(b1-3)Gal(b1-4)GlcNAc(b1-6)]GalNAc
# In short: as §1
# [27] = target: Neu5Ac(a2-3)Gal(b1-4)GlcNAc(b1-3)Gal(b1-4)GlcNAc(b1-6)[Gal(b1-3)]GalNAc
# In short: as §1
# [28] = target: Neu5Ac(a2-3)Gal(b1-4)GlcNAc(b1-3)Gal(b1-4)[Fuc(a1-3)]GlcNAc
# In short: as §1
# [29] = target: Neu5Ac(a2-3)Gal(b1-4)GlcNAc(b1-3)GalNAc
# In short: as §1
binder,measurement,setting,value
B1,glycan array binding signal (z-score),[1],4.84
same,glycan array binding signal (z-score),[2],-0.306
same,glycan array binding signal (z-score),[3],-0.235
same,glycan array binding signal (z-score),[4],-0.216
same,glycan array binding signal (z-score),[5],-0.15
same,glycan array binding signal (z-score),[6],-1.57
same,glycan array binding signal (z-score),[7],-0.155
same,glycan array binding signal (z-score),[8],-0.331
same,glycan array binding signal (z-score),[9],-0.01
same,glycan array binding signal (z-score),Neu5Ac(a2-3)Gal(b1-4)Glc,-0.348
same,glycan array binding signal (z-score),[10],-0.348
same,glycan array binding signal (z-score),[11],-0.093
same,glycan array binding signal (z-score),[12],-0.288
same,glycan array binding signal (z-score),[13],-0.317
same,glycan array binding signal (z-score),[14],-0.323
same,glycan array binding signal (z-score),[15],-0.297
same,glycan array binding signal (z-score),[16],-0.222
same,glycan array binding signal (z-score),[17],-0.253
same,glycan array binding signal (z-score),[18],-0.308
same,glycan array binding signal (z-score),[19],-0.325
same,glycan array binding signal (z-score),[20],-0.307
same,glycan array binding signal (z-score),[21],-0.415
same,glycan array binding signal (z-score),[22],-0.646
same,glycan array binding signal (z-score),[23],-0.301
same,glycan array binding signal (z-score),[24],-0.17
same,glycan array binding signal (z-score),[25],-0.28
same,glycan array binding signal (z-score),[26],-0.38
same,glycan array binding signal (z-score),[27],-0.394
same,glycan array binding signal (z-score),[28],-0.369
same,glycan array binding signal (z-score),[29],0.236

# From the supplement of paper PMC8728848
